From PubChem BioAssay AID360 (National Center for Advancing Translational Sciences (NCATS), 2006)
In all, about 48,000 compounds went through this assay and about 550 (1.1%) were called active. Inconclusive results (about 4%) are left out. No stated cut-off is given here; in the data, active means potency below about 15 µM; inconclusive means mostly about 16 µM to 33 µM; inactive means weaker than that. This is one part of the list.

Target: Lysosomal acid glucosylceramidase (Homo sapiens) (UniProt P04062)
Assay: Glucocerebrosidase;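 further: the screen sought inhibitors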
Details: purified enzyme, resorufin glucoside fluorescence (screen aimed at inhibitors), 20 min
In short: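 Normal human glucocerebrosidase (0.2 nM final) was assayed with resorufin β-D-glucopyranoside (30 uM final) in 50mM citric acid/KH2PO4, 10mM sodium taurocholate, 0.01% tween-20, pH 5.9. Compounds were titrated; fluorescence (Ex 548, Em 600) read after 20 min at RT.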
Potency means the concentration at half of the fitted maximal effect.

UniProt P04062, sequence (P04062 whole entry, looked up): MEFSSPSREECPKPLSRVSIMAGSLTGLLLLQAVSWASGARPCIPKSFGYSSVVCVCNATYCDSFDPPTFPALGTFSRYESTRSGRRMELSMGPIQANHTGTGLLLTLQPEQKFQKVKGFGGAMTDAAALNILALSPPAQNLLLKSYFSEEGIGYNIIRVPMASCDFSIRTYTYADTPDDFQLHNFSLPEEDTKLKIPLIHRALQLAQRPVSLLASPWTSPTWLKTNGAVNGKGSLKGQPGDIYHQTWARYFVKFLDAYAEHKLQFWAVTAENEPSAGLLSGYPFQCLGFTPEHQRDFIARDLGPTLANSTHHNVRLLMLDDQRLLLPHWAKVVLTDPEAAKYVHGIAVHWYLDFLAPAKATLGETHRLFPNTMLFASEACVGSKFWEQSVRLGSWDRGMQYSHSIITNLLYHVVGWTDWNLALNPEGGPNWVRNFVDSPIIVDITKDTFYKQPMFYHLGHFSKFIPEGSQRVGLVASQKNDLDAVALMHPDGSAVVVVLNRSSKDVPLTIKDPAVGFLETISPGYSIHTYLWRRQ

Potency, inactive:
O=C(C1CC(=O)N(c2ccccc2)C1)N1CCN(C2=NS(=O)(=O)c3ccccc32)CC1 (centres undefined) > 76.9 µM
Cc1ccc2cc(CN(CCO)Cc3nnnn3Cc3ccc(F)cc3)c(=O)[nH]c2c1 > 76.9 µM
O=c1[nH]c2cc3c(cc2cc1C(c1nnnn1CC1CCCO1)N1CCCCCC1)OCO3 (centres undefined) > 76.9 µM
O=C(OCC(=O)N1CCN(C(=O)c2ccco2)CC1)c1cn(-c2ccccc2)nc1-c1ccccc1 > 76.9 µM
CCN(CC)c1ccc(C2C(C(=O)OCCOC)=C(C)NC3=C2C(=O)CC(C)(C)C3)cc1 (centres undefined) > 76.9 µM
CCOC(=O)C1CCN(S(=O)(=O)C(F)(F)c2nc3ccccc3s2)CC1 > 76.9 µM
CC1(C)Cc2c(sc3ncnc(N)c23)CO1 > 76.9 µM
CCN(CCCNC(=O)COc1cc(=O)n(C)c2ccccc12)c1cccc(C)c1 > 76.9 µM
COC(=O)c1c(C)[nH]c(C(=O)CN2CCOCC2)c1C > 76.9 µM
O=C(Nc1ccccc1)OC1C2CCC1C(N1CCCCC1)CC2 (centres undefined) > 76.9 µM
O=C(O)CCCC(=O)Nc1nc(-c2ccccc2)cs1 > 76.9 µM
COc1ccc(-c2noc(CSc3nnc(Cc4ccccc4)n3-c3cccc(C)c3)n2)cc1OC > 76.9 µM
COc1cc2nc(N3CCN(C(=O)C4CCCO4)CC3)nc(N)c2cc1OC (centres undefined) > 76.9 µM
Cc1ccccc1OCc1nc(-c2ccc(NC(=O)c3ccco3)cc2)no1 > 76.9 µM
CC(C)OP(=O)(c1ccc(N(C)C)cc1)C(O)c1c(Cl)cccc1Cl (centres undefined) > 76.9 µM
Cc1cc(C(=O)Nn2cnnc2)cs1 > 76.9 µM
Cc1cnc(-c2nnc(N(C)C(=O)C3CCOC3)s2)cn1 (centres undefined) > 76.9 µM
Cc1cc(C(=O)CN2C(=O)CCC2=O)c(C)n1Cc1ccccc1 > 76.9 µM
Cc1csc(NC(=O)CCNS(=O)(=O)c2ccc3c(c2)c(=O)n(C)c(=O)n3C)n1 > 76.9 µM
CC(=O)N1CCc2cc(S(=O)(=O)NCCC(=O)Nc3cc(C)cc(C)c3)ccc21 > 76.9 µM
O=C(c1ccc(S(=O)(=O)NCC2CCCO2)cc1)N1CCc2ccccc21 (centres undefined) > 76.9 µM
CCCN1CCN(C(c2cc3cc(OCC)ccc3[nH]c2=O)c2nnnn2C2CCCCC2)CC1 (centres undefined) > 76.9 µM
COc1ccc(C2c3c(oc4ccccc4c3=O)C(=O)N2Cc2ccncc2)cc1OC (centres undefined) > 76.9 µM
Cc1ccc(C2CC(C(F)F)n3ncc(C(=O)Nc4cnn(Cc5ccccc5C)c4)c3N2)cc1 (centres undefined) > 76.9 µM
C=C(C)CSc1nc(N)c(C#N)c(-c2ccc(C)cc2)c1C#N > 76.9 µM
C=CCC(=O)OCC(=O)Nc1ccc(Oc2ccccc2)cc1 > 76.9 µM
CC1CCC2(CC1)NC(=O)c1ccccc1O2 (centres undefined) > 76.9 µM
CC(=O)C1=C(O)C(=O)N(Cc2cccnc2)C1c1ccc(Cl)cc1Cl (centres undefined) > 76.9 µM
CC(Sc1nc(NCc2ccccc2)nc(N2CCOCC2)n1)C(=O)Nc1ccccc1 (centres undefined) > 76.9 µM
COc1ccc(-c2c3c(=O)n(C)c(=O)n(C)c3cn2Cc2cccnc2)cc1 > 76.9 µM
C/C=C/c1ccc(OCCCCN2C(=O)NC(C)(C)C2=O)c(OC)c1 > 76.9 µM
Cc1nc2nc(-c3ccccc3)nn2c(C)c1Cl > 76.9 µM
COc1ccc(C2C3=C(CCCC3=O)Nc3nc(SCc4ccccc4)nn32)cc1OC (centres undefined) > 76.9 µM
CC1Cc2ccccc2N1C(=O)COc1nc2ccccc2nc1N1CCOCC1 (centres undefined) > 76.9 µM
O=C(COc1ccccc1O)Nc1ccccc1Cl > 76.9 µM
O=C(CNC(=O)c1ccco1)NCCCc1ccccc1 > 76.9 µM
COc1ccc(C(=O)NCCc2nnc(SCc3nc4ccccc4c(=O)[nH]3)n2C)cc1 > 76.9 µM
COc1ccc(CC(=O)NCc2nnc(SCC(=O)N3CCN(c4ccccc4)CC3)n2C)cc1 > 76.9 µM
O=C(NCC1CCCO1)C1CCN(CC2CCCCC2)CC1 (centres undefined) > 76.9 µM
CCc1ccc(Nc2cc(=O)n(C3CCCCC3)c(=O)[nH]2)cc1 > 76.9 µM
O=C(COc1ccc(Cl)cc1)Nc1ccc2oc(-c3ccncc3)nc2c1 > 76.9 µM
COc1ccc(N(C)S(=O)(=O)c2ccc3c(c2)oc(=O)n3C)cc1 > 76.9 µM
CCOC(=O)CSc1nc2cc(C(=O)NCC3CCCO3)ccc2c(=O)n1Cc1ccco1 (centres undefined) > 76.9 µM
COC(=O)C(NC(=O)c1ccco1)(Nc1nc(C2CC2)cs1)C(F)(F)F (centres undefined) > 76.9 µM
Cc1ccc(-c2nn(-c3ccccc3)cc2/C=C(\C#N)c2cccc(C#N)c2)o1 > 76.9 µM
O=C(OCC(=O)N1CCc2ccccc21)c1ccccc1 > 76.9 µM
O=c1[nH]n(-c2cccc3cccnc23)c(=O)c2ccccc12 > 76.9 µM
O=C(Cn1nnc2ccccc2c1=O)Nc1ccc2c(c1)CCC2 > 76.9 µM
COc1nc(Nc2cccc(C)c2)nc(N2CCCCC2)n1 > 76.9 µM
COC(=O)c1cc2nc(-c3ccccc3)cc(C)n2n1 > 76.9 µM
CC1(C)CC(C(CC(=O)O)c2ccccc2)CCO1 (centres undefined) > 76.9 µM
Cc1cc(-c2ccccc2)nc(SCc2ccc(C(=O)O)o2)n1 > 76.9 µM
COc1ccc2nc(Nc3nc(C)c(CCC(C)C)c(=O)[nH]3)nc(C)c2c1 > 76.9 µM
O=C(O)C1C2C=CC(C2)C1C(=O)NCc1ccccn1 (centres undefined) > 76.9 µM
Cc1cc(C(F)F)n2nc(C(=O)Nc3ccccc3F)nc2n1 > 76.9 µM
COc1ccccc1CNS(=O)(=O)c1ccc(NC(C)=O)cc1 > 76.9 µM
Cc1nn(-c2ccccc2)c2sc(-c3n[nH]c(=S)o3)cc12 > 15.4 µM
COc1ccc(S(=O)(=O)N2CCN(c3ccccc3OC)CC2)cc1OC > 76.9 µM
CCOC(=O)c1c(-c2ccccc2)csc1NC(=O)c1nn(CC)cc1Br > 76.9 µM
CCC(C)N(C(=O)COC(=O)c1[nH]c(C)c(C(C)=O)c1C)C1CCS(=O)(=O)C1 (centres undefined) > 76.9 µM
CC(=O)N(Cc1cc2c(C)cc(C)cc2[nH]c1=O)C1CCCCC1 > 76.9 µM
NS(=O)(=O)c1ccc(CCNC(=O)c2ccccc2F)cc1 > 76.9 µM
O=C(CCCn1c(=O)[nH]c2ccsc2c1=O)N1CCN(c2ccccn2)CC1 > 76.9 µM
Cn1ccnc1SCC(=O)NC1CCCCC1 > 76.9 µM
Cn1c(CSc2nnc(SCc3ccccc3)s2)nc2ccccc21 > 76.9 µM
Cc1onc(-c2c(Cl)cccc2Cl)c1C(=O)NCc1ccco1 > 76.9 µM
Cc1ccccc1Cn1nc(C)c(NC(=O)c2nc3n(n2)C(C(F)F)CC(C)N3)c1C (centres undefined) > 76.9 µM
O=C1c2ccccc2C(=O)N1n1c(=O)[nH]c2ccccc2c1=O > 76.9 µM
O=C(CN1C(=O)CSC1=O)Nc1ccc(N2CCOCC2)cc1 > 76.9 µM
CCOC(=O)N1CCN(c2nnnn2-c2ccccc2)CC1 > 76.9 µM
Cc1cc(C)n(S(=O)(=O)c2ccc(C(C)(C)C)cc2)n1 > 76.9 µM
COc1ccc(C(=O)N(CN2CCCC2=O)c2nccs2)cc1OC > 76.9 µM
Cc1ccc(NS(=O)(=O)c2cccc(C(=O)N3CCOCC3)c2)cc1 > 76.9 µM
CC1(C)CC(=O)C2=C(C1)Oc1ncn3nc(-c4cccnc4)nc3c1C2c1ccccc1 (centres undefined) > 76.9 µM
CCSC1=C(C#N)C(c2cccc(OC)c2)CC(=O)N1 (centres undefined) > 76.9 µM
CCOC(=O)N1CCC(C(N)=O)CC1 > 76.9 µM
CCN(CCCNC(=O)CN1C(=O)COc2ccccc21)c1cccc(C)c1 > 76.9 µM
CC(C)[C@H](NC(=O)NCc1ccco1)C(=O)O > 76.9 µM
O=C(NCc1ccco1)C1CCCN(S(=O)(=O)c2ccc(-n3cnnn3)cc2)C1 (centres undefined)
O=C(Oc1ccc(-c2ccccc2)cc1)N1CCCCC1 > 76.9 µM
CC1CCCN(C(=O)Cn2c(=O)oc3ccccc32)C1 (centres undefined) > 76.9 µM
CCC1CCCCN1C(=O)CSc1nnc(-c2ccc3c(c2)OCCO3)o1 (centres undefined) > 76.9 µM
Cc1ccc(CNC(=O)CSc2nc3ccccc3c(=O)n2CCCO)cc1 > 76.9 µM
CCOC(=O)c1cc(C)[nH]c(=S)c1C#N > 76.9 µM
CC1CN(S(=O)(=O)Cc2ccccc2)CC(C)O1 (centres undefined) > 76.9 µM
O=C(Nc1ccc(N2CCN(Cc3ccccc3)CC2)cc1)c1ncn[nH]1 > 76.9 µM
O=C1c2ccccc2C(=O)N1CCC(=O)N1CCc2ccccc21 > 76.9 µM
CSCCC(NC(=O)c1ccccc1)C(=O)NC1CCCC1 (centres undefined) > 76.9 µM
O=C(OCC(O)CN1CCCCC1)C12CC3CC(CC(C3)C1)C2 (centres undefined) > 76.9 µM
